# Source: the supplement of paper PMC8728848
# Some of the results follow.
# Experiments:
# Assay in all cases: glycan array binding signal (z-score within array); higher = stronger binding
# Conditions in all cases: glycan notation: IUPAC condensed, linker removed
# [1] = target: GlcNAc(b1-2)Gal(b1-3)GalNAc
# How it was run: (§1)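 Arrays were curated from the Consortium for Functional Glycomics database, 3228 in total, and kept only where the protein sequence was available. Binding is expressed as a within-array Z-score. This score was averaged across arrays of the same protein sequence at different concentrations or buffers and across linkers, and negative values can be read as non-binding.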
# [2] = target: GlcNAc(b1-2)Man(a1-3)[GlcNAc(b1-2)Man(a1-6)]Man(b1-4)GlcNAc(b1-4)GlcNAc
# How it was run: as §1
# [3] = target: GlcNAc(b1-2)Man(a1-3)[GlcNAc(b1-2)Man(a1-6)]Man(b1-4)GlcNAc(b1-4)[Fuc(a1-6)]GlcNAc
# How it was run: as §1
# [4] = target: GlcNAc(b1-2)Man(a1-3)[GlcNAc(b1-4)][GlcNAc(b1-2)Man(a1-6)]Man(b1-4)GlcNAc(b1-4)GlcNAc
# How it was run: as §1
# [5] = target: GlcNAc(b1-2)Man(a1-3)[GlcNAc(b1-4)][GlcNAc(b1-2)Man(a1-6)]Man(b1-4)GlcNAc(b1-4)[Fuc(a1-6)]GlcNAc
# How it was run: as §1
# [6] = target: GlcNAc(b1-2)[GlcNAc(b1-4)]Man(a1-3)[GlcNAc(b1-2)Man(a1-6)]Man(b1-4)GlcNAc(b1-4)GlcNAc
# How it was run: as §1
# [7] = target: GlcNAc(b1-2)[GlcNAc(b1-4)]Man(a1-3)[GlcNAc(b1-4)][GlcNAc(b1-2)Man(a1-6)]Man(b1-4)GlcNAc(b1-4)GlcNAc
# How it was run: as §1
# [8] = target: GlcNAc(b1-2)[GlcNAc(b1-4)]Man(a1-3)[GlcNAc(b1-4)][GlcNAc(b1-2)[GlcNAc(b1-6)]Man(a1-6)]Man(b1-4)GlcNAc(b1-4)GlcNAc
# How it was run: as §1
# [9] = target: GlcNAc(b1-2)[GlcNAc(b1-4)]Man(a1-3)[GlcNAc(b1-4)][GlcNAc(b1-2)[GlcNAc(b1-6)]Man(a1-6)]Man(b1-4)GlcNAc(b1-4)[Fuc(a1-6)]GlcNAc
# How it was run: as §1
# [10] = target: GlcNAc(b1-2)[GlcNAc(b1-6)]Man(a1-6)[GlcNAc(b1-2)Man(a1-3)]Man(b1-4)GlcNAc(b1-4)GlcNAc
# How it was run: as §1
# [11] = target: GlcNAc(b1-2)[GlcNAc(b1-6)]Man(a1-6)[GlcNAc(b1-2)Man(a1-3)]Man(b1-4)GlcNAc(b1-4)[Fuc(a1-6)]GlcNAc
# How it was run: as §1
# [12] = target: GlcNAc(b1-2)[GlcNAc(b1-6)]Man(a1-6)[GlcNAc(b1-4)][GlcNAc(b1-2)Man(a1-3)]Man(b1-4)GlcNAc(b1-4)GlcNAc
# How it was run: as §1
# GlcNAc(b1-3)Fuc = target: GlcNAc(b1-3)Fuc
# How it was run: as §1
# GlcNAc(b1-3)Gal = target: GlcNAc(b1-3)Gal
# How it was run: as §1
# [13] = target: GlcNAc(b1-3)Gal(b1-3)GalNAc
# How it was run: as §1
# GlcNAc(b1-3)Gal(b1-4)Glc = target: GlcNAc(b1-3)Gal(b1-4)Glc
# How it was run: as §1
# [14] = target: GlcNAc(b1-3)Gal(b1-4)GlcNAc
# How it was run: as §1
# [15] = target: GlcNAc(b1-3)Gal(b1-4)GlcNAc(b1-2)Man(a1-3)[GlcNAc(b1-3)Gal(b1-4)GlcNAc(b1-2)Man(a1-6)]Man(b1-4)GlcNAc(b1-4)GlcNAc
# How it was run: as §1
# [16] = target: GlcNAc(b1-3)Gal(b1-4)GlcNAc(b1-2)Man(a1-3)[GlcNAc(b1-3)Gal(b1-4)GlcNAc(b1-2)Man(a1-6)]Man(b1-4)GlcNAc(b1-4)[Fuc(a1-6)]GlcNAc
# How it was run: as §1
# [17] = target: GlcNAc(b1-3)Gal(b1-4)GlcNAc(b1-2)[GlcNAc(b1-3)Gal(b1-4)GlcNAc(b1-6)]Man(a1-6)[GlcNAc(b1-3)Gal(b1-4)GlcNAc(b1-2)Man(a1-3)]Man(b1-4)GlcNAc(b1-4)GlcNAc
# How it was run: as §1
# [18] = target: GlcNAc(b1-3)Gal(b1-4)GlcNAc(b1-3)Gal(b1-4)GlcNAc
# How it was run: as §1
# [19] = target: GlcNAc(b1-3)Gal(b1-4)GlcNAc(b1-3)Gal(b1-4)GlcNAc(b1-2)Man(a1-3)[GlcNAc(b1-3)Gal(b1-4)GlcNAc(b1-3)Gal(b1-4)GlcNAc(b1-2)Man(a1-6)]Man(b1-4)GlcNAc(b1-4)GlcNAc
# How it was run: as §1
# [20] = target: GlcNAc(b1-3)Gal(b1-4)GlcNAc(b1-3)Gal(b1-4)GlcNAc(b1-2)Man(a1-3)[GlcNAc(b1-3)Gal(b1-4)GlcNAc(b1-3)Gal(b1-4)GlcNAc(b1-2)Man(a1-6)]Man(b1-4)GlcNAc(b1-4)[Fuc(a1-6)]GlcNAc
# How it was run: as §1
# [21] = target: GlcNAc(b1-3)Gal(b1-4)GlcNAc(b1-3)Gal(b1-4)GlcNAc(b1-2)[GlcNAc(b1-3)Gal(b1-4)GlcNAc(b1-3)Gal(b1-4)GlcNAc(b1-6)]Man(a1-6)[GlcNAc(b1-3)Gal(b1-4)GlcNAc(b1-3)Gal(b1-4)GlcNAc(b1-2)Man(a1-3)]Man(b1-4)GlcNAc(b1-4)[Fuc(a1-6)]GlcNAc
# How it was run: as §1
# [22] = target: GlcNAc(b1-3)Gal(b1-4)GlcNAc(b1-3)Gal(b1-4)GlcNAc(b1-3)Gal(b1-4)GlcNAc(b1-2)Man(a1-3)[GlcNAc(b1-3)Gal(b1-4)GlcNAc(b1-3)Gal(b1-4)GlcNAc(b1-3)Gal(b1-4)GlcNAc(b1-2)Man(a1-6)]Man(b1-4)GlcNAc(b1-4)GlcNAc
# How it was run: as §1
# [23] = target: GlcNAc(b1-3)Gal(b1-4)GlcNAc(b1-3)Gal(b1-4)GlcNAc(b1-3)Gal(b1-4)GlcNAc(b1-2)Man(a1-3)[GlcNAc(b1-3)Gal(b1-4)GlcNAc(b1-3)Gal(b1-4)GlcNAc(b1-3)Gal(b1-4)GlcNAc(b1-2)Man(a1-6)]Man(b1-4)GlcNAc(b1-4)[Fuc(a1-6)]GlcNAc
# How it was run: as §1
# [24] = target: GlcNAc(b1-3)Gal(b1-4)GlcNAc(b1-3)Gal(b1-4)GlcNAc(b1-3)Gal(b1-4)GlcNAc(b1-2)[GlcNAc(b1-3)Gal(b1-4)GlcNAc(b1-3)Gal(b1-4)GlcNAc(b1-3)Gal(b1-4)GlcNAc(b1-6)]Man(a1-6)[GlcNAc(b1-3)Gal(b1-4)GlcNAc(b1-3)Gal(b1-4)GlcNAc(b1-3)Gal(b1-4)GlcNAc(b1-2)Man(a1-3)]Man(b1-4)GlcNAc(b1-4)[Fuc(a1-6)]GlcNAc
# How it was run: as §1
# [25] = target: GlcNAc(b1-3)Gal(b1-4)GlcNAc(b1-3)Gal(b1-4)GlcNAc(b1-3)Gal(b1-4)GlcNAc(b1-3)Gal(b1-4)GlcNAc(b1-2)Man(a1-3)[GlcNAc(b1-3)Gal(b1-4)GlcNAc(b1-3)Gal(b1-4)GlcNAc(b1-3)Gal(b1-4)GlcNAc(b1-3)Gal(b1-4)GlcNAc(b1-2)Man(a1-6)]Man(b1-4)GlcNAc(b1-4)GlcNAc
# How it was run: as §1
# [26] = target: GlcNAc(b1-3)Gal(b1-4)GlcNAc(b1-3)Gal(b1-4)GlcNAc(b1-3)Gal(b1-4)GlcNAc(b1-3)Gal(b1-4)GlcNAc(b1-2)Man(a1-3)[GlcNAc(b1-3)Gal(b1-4)GlcNAc(b1-3)Gal(b1-4)GlcNAc(b1-3)Gal(b1-4)GlcNAc(b1-3)Gal(b1-4)GlcNAc(b1-2)Man(a1-6)]Man(b1-4)GlcNAc(b1-4)[Fuc(a1-6)]GlcNAc
# How it was run: as §1
# [27] = target: GlcNAc(b1-3)Gal(b1-4)GlcNAc(b1-3)Gal(b1-4)GlcNAc(b1-3)Gal(b1-4)GlcNAc(b1-3)Gal(b1-4)GlcNAc(b1-2)[GlcNAc(b1-3)Gal(b1-4)GlcNAc(b1-3)Gal(b1-4)GlcNAc(b1-3)Gal(b1-4)GlcNAc(b1-3)Gal(b1-4)GlcNAc(b1-6)]Man(a1-6)[GlcNAc(b1-3)Gal(b1-4)GlcNAc(b1-3)Gal(b1-4)GlcNAc(b1-3)Gal(b1-4)GlcNAc(b1-3)Gal(b1-4)GlcNAc(b1-2)Man(a1-3)]Man(b1-4)GlcNAc(b1-4)[Fuc(a1-6)]GlcNAc
# How it was run: as §1
# [28] = target: GlcNAc(b1-3)Gal(b1-4)GlcNAc(b1-3)Gal(b1-4)GlcNAc(b1-3)GalNAc
# How it was run: as §1
# [29] = target: GlcNAc(b1-3)Gal(b1-4)GlcNAc(b1-3)GalNAc
# How it was run: as §1
# [30] = target: GlcNAc(b1-3)Gal(b1-4)GlcNAc(b1-3)[GlcNAc(b1-3)Gal(b1-4)GlcNAc(b1-3)]GalNAc
# How it was run: as §1
# [31] = target: GlcNAc(b1-3)Gal(b1-4)GlcNAc(b1-6)[Gal(b1-3)]GalNAc
# How it was run: as §1
# [32] = target: GlcNAc(b1-3)Gal(b1-4)GlcNAc(b1-6)[GlcNAc(b1-3)Gal(b1-3)]GalNAc
# How it was run: as §1
# [33] = target: GlcNAc(b1-3)Gal(b1-4)GlcNAc(b1-6)[GlcNAc(b1-3)]Gal(b1-4)GlcNAc
# How it was run: as §1
# GlcNAc(b1-3)GalNAc = target: GlcNAc(b1-3)GalNAc
# How it was run: as §1
binder,measurement,setting,value
Si Bti9 1b-V5-his (Solanum lycopersicum) (protein) MQCNRGCDLALASFYVWRGSNLTLISEMFSTSIADIVSYNNRDNIPNQDSVIAGTRINIPFRCDCLNDGEVLGHAFPYRVKSGDTYDLVARNYSDLTTAQWMMKFNSYPENNIPNTVNLSVVVNCSCGNSDVSKDFGLFVTYPVRAEDNLTSVASAANVSEDIIRRYNPAAVSILDIGQGIIYIPGRDRNGNFPPLPTSTDGLSGGAKKGGRADPAFLYKVVINSKLEGKPIPNPLLGLDSTRTGHHHHHH,glycan array binding signal (z-score),[1],-0.219
same,glycan array binding signal (z-score),[2],0.03
same,glycan array binding signal (z-score),[3],0.243
same,glycan array binding signal (z-score),[4],-0.255
same,glycan array binding signal (z-score),[5],-0.171
same,glycan array binding signal (z-score),[6],-0.289
same,glycan array binding signal (z-score),[7],-0.312
same,glycan array binding signal (z-score),[8],-0.132
same,glycan array binding signal (z-score),[9],-0.284
same,glycan array binding signal (z-score),[10],-0.355
same,glycan array binding signal (z-score),[11],-0.344
same,glycan array binding signal (z-score),[12],-0.329
same,glycan array binding signal (z-score),GlcNAc(b1-3)Fuc,-0.153
same,glycan array binding signal (z-score),GlcNAc(b1-3)Gal,-0.309
same,glycan array binding signal (z-score),[13],-0.253
same,glycan array binding signal (z-score),GlcNAc(b1-3)Gal(b1-4)Glc,-0.248
same,glycan array binding signal (z-score),[14],-0.298
same,glycan array binding signal (z-score),[15],-0.252
same,glycan array binding signal (z-score),[16],0.087
same,glycan array binding signal (z-score),[17],-0.015
same,glycan array binding signal (z-score),[18],-0.345
same,glycan array binding signal (z-score),[19],0.248
same,glycan array binding signal (z-score),[20],0.336
same,glycan array binding signal (z-score),[21],-0.178
same,glycan array binding signal (z-score),[22],3.41
same,glycan array binding signal (z-score),[23],-0.116
same,glycan array binding signal (z-score),[24],-0.191
same,glycan array binding signal (z-score),[25],-0.24
same,glycan array binding signal (z-score),[26],-0.239
same,glycan array binding signal (z-score),[27],0.862
same,glycan array binding signal (z-score),[28],-0.225
same,glycan array binding signal (z-score),[29],-0.146
same,glycan array binding signal (z-score),[30],-0.113
same,glycan array binding signal (z-score),[31],-0.323
same,glycan array binding signal (z-score),[32],-0.151
same,glycan array binding signal (z-score),[33],-0.14
same,glycan array binding signal (z-score),GlcNAc(b1-3)GalNAc,-0.322
